# Measured values published in ChEMBL document CHEMBL4888484, “Replenishing the malaria drug discovery pipeline: Screening and hit evaluation of the MMV Hit Generation Library 1 (HGL1) against asexual blood stage Plasmodium falciparum ,using a nano luciferase reporter read-out” (2022).
# Several values for one entry are separate records, joined by “and”; a condition that tells them apart may be missing. Identical values can stand only once. In all, about 150,000 compounds went through this assay and about 540 (0.36%) showed an effect of 50% or more. This is one part of the list.
# System: Plasmodium falciparum
# Experiment: Primary screen in NF54 nanoGlo assay, in single point, at 2uM, 72h; a lower Z score goes with more inhibition
# Format: functional, Erythrocyte
# Conditions: timepoint 72 hour
Compound,% Inhibition,Z score,% Inhibition (2 µM)
CN1CCN(C(=O)c2cccc(S(=O)(=O)N3CCC[C@H]3CO)c2)CC1=O,-5%,0.48,–
O=C(Nc1ccccc1)C1CCN(C(=O)c2cnn(-c3ccccc3)c2)CC1,-14%,1.77,–
COCCn1c(CO)nnc1[C@H]1C[C@@H](Nc2cc(C)c(C#N)c(C)n2)C1,-13%,1.41,–
c1ccc(-n2nnnc2-c2ccc(-c3nnnn3-c3ccccc3)cc2)cc1,-5%,0.96,–
COC[C@@H]1CCCN1C(=O)N[C@H]1CCCc2ccccc21,-4%,0.72,–
CC(NCC(=O)NCC1CCS(=O)(=O)C1)c1cccc(Cl)c1 (centres undefined),3%,-0.44,–
CCN(Cc1nc2ccccc2c(=O)[nH]1)C1CCN(Cc2ccccc2)CC1,-1%,0.13,–
COc1cc([C@H]2CC(=O)Nc3[nH]nc(C)c32)ccc1OCc1ccccc1C,2%,-0.37,–
CN(C[C@H]1CCN(C)C1(C)C)C(=O)Cc1cccc(O)c1,-1%,0.21,–
Cc1ccc2c(c1)c1c(n2C[C@@H](O)Cn2ccnc2C)C(=O)CCC1,14%,-2.43,–
Cc1cc(N(C)C)n2nc(CN3CCC(Cc4ccccc4)CC3)nc2n1,-10%,1.3,–
CC(C)c1csc([C@@H](C#N)C(=O)C2CCOCC2)n1,-14%,2.69,–
COc1ccc(OC)c(S(=O)(=O)Nc2ccc(S(=O)(=O)N3CCCC[C@@H]3C)cc2)c1,0%,-0.02,–
O=C(CC1=CCCCC1)NC1CCN(c2[nH]cnc3ncnc2-3)CC1,-6%,0.84,–
CC=C(C)C(=O)N1CCOC[C@@]1(CO)CNC(=O)OC(C)(C)C,-17%,2.27,–
Cc1nc(C(=O)NCC2(N3CCCCC3)CCOCC2)c(C)s1,-6%,0.95,–
CN1c2cc(F)ccc2C(=O)NC12CCN(C(=O)NCc1ccccc1)CC2,-12%,1.49,–
Cc1nc[nH]c1C(=O)NC[C@H]1CCCN(Cc2ccoc2)C1,-4%,0.41,–
COc1ccc([C@H](C)NC(=O)C(N)=O)cc1,1%,-0.16,–
Cc1cc(CCNC(=O)N2CC[C@]3(CCOC3)C2)cc(C)c1O,6%,-1.12,–
Cc1cnn(C2CN(Cc3cc(=O)n(C)c(=O)n3C)C2)c1,-13%,1.75,–
C#CC[C@H](CC(F)(F)F)NC(=O)c1cnc2n1CCOC2,-8%,1.57,–
CCOC(=O)CC(=O)Nc1ccccc1C(N)=O,-1%,0.19,–
Cn1c(C(=O)NCCCN2CCN(c3ccccc3F)CC2)c(N2CCCC2=O)c2cc(F)ccc21,0%,0.01,–
Cc1cccc(N2CCN(C(=O)c3nc4cccnc4n(CC(C)C)c3=O)CC2)c1C,-8%,0.85,–
O=S(=O)(NCC12CCCN1CCC2)c1cccc2c1OCC2,-3%,0.44,–
CCn1cc(-c2ccc(C)cc2)cc1C(=O)N1CCC[C@H](C)C1,-1%,0.13,–
O=C(c1ccc(OCc2ccccc2)nc1)N1CC[C@@H](O)C1,-9%,0.91,–

Compound,% Inhibition,Z score,% Inhibition (2 µM)
Cc1cc(C)n(S(=O)(=O)N2CCOCC2)n1,-1%,0.26,–
Cc1cc(C(=O)Nc2ccc3ccccc3c2)c(C)o1,-10%,1.11,–
COCCn1nnnc1N1CCN(C(=O)OC(C)(C)C)[C@@H](C)C1,–,–,-2% and 15%
CC1CCN(C(=O)c2ccc(N3CCCC(CO)C3C)nc2)CC1 (centres undefined),-16%,2.97,–
CC1CCC(n2cc(-c3cccs3)nn2)C1 (centres undefined),-20%,2.7,–
Cc1ccc(C(=O)N(CCN2CCCCC2)C2CCOCC2)cc1F,-15%,2.5,–
Cc1ccc(-c2cnc(N)cn2)c(-n2cccn2)c1,11%,-2.11,–
Cc1nc2[nH]cnc2cc1-c1ccc(CN(C)C)cc1,-15%,1.49,–
CCC[C@H]1CN(CCO)C[C@@H]1NC(=O)c1ccc(OC)cc1,-2%,0.32,–
CCCCN1CC(C(=O)N2CC(C)CC(C)C2)CC1=O (centres undefined),-5%,0.76,–
COc1ccc(-c2noc([C@@](C)(O)Cn3c(C)cccc3=O)n2)cc1OC,-8%,0.75,–
Cc1c(N[C@@H](CC2CCN(C(=O)OC(C)(C)C)CC2)c2cccnc2)cnn1C,-9%,1.58,–
CC(C)N1CCC[C@H]1C(=O)Nc1nc2cccnc2n1C,-3%,0.45,–
CN(Cc1ccsc1)C(=O)CNC(=O)COc1ccccc1,-11%,1.45,–
CC[C@H](NC(=O)CCC(=O)c1cccc2ccccc12)C1CC(O)C1 (some centres undefined),9%,-1.21,–
Cc1cccc2oc(CNC(=O)CCN3C[C@@H](C)O[C@@H](C)C3)nc12,0%,0.04,–
C=CCN(CC(F)(F)F)C(=O)CC1CCC2(CC1)OCCO2,5%,-0.96,–
O=C(Nc1n[nH]c(C(F)(F)F)n1)c1ccc2nnnn2c1,-11%,1.34,–
CC(=O)Nc1ccc(NC(=O)N2CCCCCCC2)cc1,-7%,1.48,–
NC(=O)C[C@@H](CC(=O)OCc1ccccn1)c1ccccc1,7%,-0.82,–
CC(=O)c1nn(-c2ccc(OC(F)(F)F)cc2)nc1Nc1ccc(F)cc1,-13%,1.55,–
CC(C)(C)OC(=O)NC1(CO)CCN(c2nc(-c3ccccc3)ns2)CC1,4%,-0.67,–
Clc1ccccc1CNc1nc(-c2ccccc2)no1,-11%,0.94,–
CC(NC(C)c1ccc(Cl)cc1Cl)C(=O)NC1CCCCC1 (centres undefined),-11%,1.69,–
O=C(Cc1ccccc1)C1CCCN(C(=O)C2CCOC2)C1 (centres undefined),-2%,0.3,–
CC(C)CCS(=O)(=O)NC(=O)C1CC2CCC(C1)C2=O (centres undefined),-11%,0.95,–
C#C[C@H](C)OC(=O)c1ccc(N(CC)CC)nc1,-7%,0.59,–
